From publication PMC4336329 (PLoS ONE, 2015)
Out of some 310,000 compounds screened, about 2,200 (0.71%) showed an effect of 50% or more. Effects have a minus sign here. Some of the results follow.

The compounds below were run against human ether-à-go-go-related gene (hERG) potassium channel (human, UniProt Q12809) (assay: primary screen, population patch clamp on CHO cells stably expressing hERG).
Sequence of human ether-à-go-go-related gene (hERG) potassium channel (Q12809 whole entry, looked up): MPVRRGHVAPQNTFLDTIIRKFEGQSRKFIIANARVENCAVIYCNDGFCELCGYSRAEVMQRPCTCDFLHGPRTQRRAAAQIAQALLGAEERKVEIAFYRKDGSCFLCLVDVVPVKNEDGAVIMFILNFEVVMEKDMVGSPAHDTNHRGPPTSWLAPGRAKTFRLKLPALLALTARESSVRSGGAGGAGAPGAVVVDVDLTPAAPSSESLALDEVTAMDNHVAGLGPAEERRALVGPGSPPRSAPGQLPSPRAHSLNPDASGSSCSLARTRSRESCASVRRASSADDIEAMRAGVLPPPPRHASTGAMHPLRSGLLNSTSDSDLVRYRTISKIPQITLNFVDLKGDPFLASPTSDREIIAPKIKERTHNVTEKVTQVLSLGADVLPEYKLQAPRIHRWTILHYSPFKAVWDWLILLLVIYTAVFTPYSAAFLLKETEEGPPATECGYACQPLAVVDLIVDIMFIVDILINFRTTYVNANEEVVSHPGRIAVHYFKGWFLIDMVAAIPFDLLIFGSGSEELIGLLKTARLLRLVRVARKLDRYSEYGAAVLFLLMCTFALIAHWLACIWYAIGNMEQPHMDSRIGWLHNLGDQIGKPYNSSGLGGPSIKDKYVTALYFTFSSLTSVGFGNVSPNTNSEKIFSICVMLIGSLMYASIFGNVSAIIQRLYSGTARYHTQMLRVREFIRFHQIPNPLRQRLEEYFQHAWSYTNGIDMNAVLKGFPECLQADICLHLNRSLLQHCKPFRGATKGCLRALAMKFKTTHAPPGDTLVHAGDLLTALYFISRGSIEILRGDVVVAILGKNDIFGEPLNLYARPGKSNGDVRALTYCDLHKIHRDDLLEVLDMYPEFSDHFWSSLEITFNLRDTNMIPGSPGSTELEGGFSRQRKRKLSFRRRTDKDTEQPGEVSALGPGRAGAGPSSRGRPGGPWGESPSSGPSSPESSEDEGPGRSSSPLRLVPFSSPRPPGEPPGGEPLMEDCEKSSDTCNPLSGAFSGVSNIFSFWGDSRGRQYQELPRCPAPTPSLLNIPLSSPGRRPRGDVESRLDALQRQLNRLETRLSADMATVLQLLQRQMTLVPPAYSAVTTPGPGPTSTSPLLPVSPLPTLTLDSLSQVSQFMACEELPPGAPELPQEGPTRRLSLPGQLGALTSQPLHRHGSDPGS

Row | Compound | hERG current change (%, negative = inhibition) at 1uM [%]
1 | O=C(NNC(=O)c1ccc([N+](=O)[O-])cc1)c1ccncc1 | 1.31
2 | O=c1[nH]c(SCc2ccc([N+](=O)[O-])cc2)nc2[nH]ncc12 | -4.94
3 | CCC(C)(C)NC(=O)CN(Cc1ccco1)C(=O)CCC(=O)Nc1nccs1 | 12.8
4 | COC(=O)c1ccc(S(=O)(=O)N2CCc3ccccc32)cc1 | 11.2
5 | CC(=O)Nc1ccc(NC(=O)C(C)OC(=O)C2(c3ccccc3F)CCCC2)cc1 (stereo not drawn) | 12.3
6 | CC(C)c1cc(N2CCC(=O)NC2=O)cc(C(=O)O)c1O | 24.5
7 | CC(C)(C)OC(=O)N1CCC(C(=O)Nc2ccc3c(c2)CCC3)CC1 | -4.39
8 | COC(=O)c1ccc(C2/C(=C(\O)c3ccc(OC)c(C)c3)C(=O)C(=O)N2c2cc(C)on2)cc1 (stereo not drawn) | 1.53
9 | O=C(CC1Sc2ccccc2NC1=O)Nc1cccc(-c2nnc3n2CCCCC3)c1 (stereo not drawn) | 0.624
10 | CCN1CCC2(CCN(Cc3cn[nH]c3-c3ccc(OC)c(F)c3)C2)C1 (stereo not drawn) | 16.8
11 | CC(=O)N1c2ccc(S(=O)(=O)N3CCC(C(=O)N4CCN(c5ccc(Cl)cc5)CC4)CC3)cc2CC1C (stereo not drawn) | -7.4
12 | COc1ccc(-c2cc(C(F)(F)F)n3nc(N)nc3n2)cc1 | -1.3
13 | CN(C)[C@@H]1C(=O)C(C(N)=O)=C(O)[C@@]2(O)C(=O)C3=C(O)c4c(O)cccc4[C@@](C)(O)C3[C@H](O)C12.Cl (stereo partly drawn) | 5.46
14 | C/C=C/C(=O)OCC(=O)Nc1ccc(F)cc1Cl | 0.796
15 | CCCCOC(=O)Cn1c(=N)n(CCN2CCOCC2)c2ccccc21.Cl | -17.7
16 | COc1ccc(NC(=S)NCc2cccs2)c(OC)c1 | -4.33
17 | CCOC(=O)c1c(NC(=S)Nc2ccccc2)sc2c1CCN(C)C2 | -62.8
18 | Cc1ccc(C(=O)C(C)OC(=O)c2n[nH]c(=O)c3ccccc23)cc1 (stereo not drawn) | 10.3
19 | Cc1nn(CCOc2ccccc2)c(=O)n1-c1c(F)cccc1F | 4.49
20 | CCOC(=O)c1cc(-c2ccc(F)cc2)n(CC(=O)NC(C)CC)c1C (stereo not drawn) | 9.56
21 | Cc1cc(=O)oc2cc(NC(=O)c3ccccc3Cl)ccc12 | 18.3
22 | Cc1cc2c(OCC(O)CNCc3ccco3)cccc2[nH]1 (stereo not drawn) | 17.2
23 | CCOC(=O)c1c(C)[nH]c(C)c1S(=O)(=O)N(C)CC(=O)Nc1ccccc1OC | -39.3
24 | Cc1ccc(/C(N)=N/OC(=O)Cc2ccccc2)cc1 | 11.4
25 | COc1ccc(C2C(C#N)=C(N)Oc3c2c(C)nn3-c2ccccc2)cc1Cn1nc(C)c([N+](=O)[O-])c1C (stereo not drawn) | 6.57
26 | COc1cccc(N2C(=O)C(CC(=O)Nc3ccccc3)N(C3CCCCC3)C2=O)c1 (stereo not drawn) | -2.9
27 | COc1cccc(NC(=O)COC(=O)c2c(C)nn(-c3ccccc3)c2C)c1 | 0.942

Row | Compound | hERG current change (%, negative = inhibition) at 1uM [%]
28 | CC(C)C(NC(=O)c1ccccc1)c1nnc(SCC(=O)Nc2nccs2)n1C (stereo not drawn) | 15.7
29 | COc1ccc(Cl)cc1S(=O)(=O)NC1CC(C)(C)NC(C)(C)C1 | 11.7
30 | O=P(O)(CP(=O)(c1ccccc1)c1ccccc1)c1ccccc1 | 13.7
31 | COc1ccc(NC(=O)CN(C)C(=O)c2cn(-c3ccccc3)nc2-c2ccc(Cl)cc2)cc1 | 13.2
32 | COc1ccc(OC)c(S(=O)(=O)Nc2ccccc2C(F)(F)F)c1 | 2.15
33 | Cn1c(=O)c2[nH]c(C3CCCC3)nc2n(C)c1=O | 16.1
34 | O=C(CCN1CCN(Cc2ccccc2)CC1)NNC(=O)Nc1cccc(C(F)(F)F)c1 | 2.84
35 | CCOc1cc(C)c(Cl)cc1S(=O)(=O)n1nnc2ccccc21 | 16
36 | CC(=O)Nc1ccc(NC(=O)C2CCCN(c3nnc(-n4cccc4)s3)C2)cc1 (stereo not drawn) | 8.99
37 | CC(C)CC(COCc1ccc(Cl)cc1)N1CCN(C(=O)c2ccc(Cl)cc2Cl)CCC1=O (stereo not drawn) | 3.31
38 | C=CCN(Cc1ccc(OC)c(OC)c1)C(=O)N1CCOCC1 | -0.0138
39 | CCc1ccccc1-n1c(SCC(=O)N2CCCC2)nnc1-c1ccccn1 | -3.57
40 | CC(=O)c1cn(CC(=O)Nc2ccccc2F)c2ccccc12 | 7.87
41 | O=C(NCc1ccccc1)c1ccc(Cl)cc1 | 1.35
42 | COc1ccc(/C=C(\NC(=O)c2ccc(Cl)cc2)C(=O)NCCCn2ccnc2)cc1OC | 9.45
43 | COc1ccc(S(=O)(=O)N2CCC(C(=O)NCc3cccnc3)CC2)cc1OC | 12.1
44 | COC(=O)c1c(C)oc2c1cc(NS(=O)(=O)c1cccs1)c1ccccc12 | 3.8
45 | COc1ccc(C(=O)O/N=C(\N)Cc2cccs2)cc1OC | 3.38
46 | Cc1c(N)cc(C(=O)N2CCOCC2)cc1[N+](=O)[O-] | 17.3
47 | O=C(NCc1ccccc1)C(=O)NCC1COc2ccccc2O1 (stereo not drawn) | 3.38
48 | CCCCn1c(N)c(N(CC(C)C)C(=O)CN2C(=O)C3CCCCC3C2=O)c(=O)[nH]c1=O (stereo not drawn) | 8.39
49 | CCc1ccc(NC(=O)CSc2nc3nc(C)cc(C)n3n2)cc1 | -1.15
50 | CCOC(=O)c1c(OCCO)nn(-c2ccccc2)c1N | 13
51 | COc1ccc(CCc2[nH+]c(C)ccc2O)cc1.[Cl-] | 16.4
52 | Cn1c(=O)oc2cc(S(=O)(=O)Nc3cccc(F)c3)ccc21 | 11.6
53 | Cc1cccc(COCCN2CCN(S(=O)(=O)c3ccccc3)CCC2=O)c1 | 3.43
54 | COC(=O)[C@@]1(Cc2ccc(F)cc2)[C@H]2c3cc(C(=O)N(C)C)[nH]c3C[C@H]2CN1C(=O)c1ccccc1 | 17.4
